# Source: PubChem BioAssay AID540267 (National Center for Advancing Translational Sciences (NCATS), 2011)
# Hit rate of the full screen: of about 340,000 compounds, about 530 (0.16%) were called active. The shares of active, inactive and inconclusive entries below differ from those in the screen. Cut-off read from the data, not from the text of the source: active = activity change below about -80%; inconclusive = between about -30% and that limit; inactive = weaker than that.
# Assay: Small Molecules that selectively kill Giardia lamblia: qHTS;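 note: parasites exposed to compound for two days anaerobically before the ATP read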
# Conditions: Giardia lamblia trophozoite viability; at 7.66 µM; stronger effect = lower value
# Summary of the method: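 Luminescence from cellular ATP indicates surviving trophozoites (100 cells/well) following 48 hrs anaerobic compound treatment at 37 deg C; signal develops 15-30 min at room temperature.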
# % is set by controls: 0 for no effect and ±100 for the full control effect.
row,Compound,activity change
1,Nc1ccc(C(=O)N/N=C/c2sc(N3CCOCC3)nc2-c2ccccc2)cc1,inactive: -7.66%
2,Cc1ccc(NC(=O)N2CCCN(C(=O)OC(C)(C)C)CC2)cc1Cl,inconclusive: -34.2% [inhibitor]
3,COC(=O)C(C)NC(=S)N1CCN(c2c(F)cc3c(=O)c(C(=O)O)cn(C4CC4)c3c2OC)CC1C (stereo not given),inconclusive: -30.5% [inhibitor]
4,CCN1/C(=C/c2cc[n+](CCCS(=O)(=O)[O-])c3ccccc23)Sc2ccccc21,inconclusive: -30.4% [inhibitor]
5,O=C(Nc1ccc(Cl)cc1)Nc1csc([N+](=O)[O-])c1,inconclusive: -37.7% [inhibitor]
6,COc1ccc(/C=C/c2nccc3c2[nH]c2ccccc23)cc1,inactive: -21.9%
7,O=C(Nc1ccc(-c2nc3ncccc3o2)cc1)c1ccc([N+](=O)[O-])o1,active: -93.7%
8,O=C(CNC(=O)c1ccco1)OCc1ccccc1Cl,inconclusive: -42.1% [inhibitor]
9,COc1cccc(NC(=O)c2cnn(-c3ccccc3)c2C)c1,inconclusive: -30.9% [inhibitor]
10,O=C(CSc1nnc2scc(-c3ccccc3)n12)c1ccc2c(c1)OCCO2,inconclusive: -33.5% [inhibitor]
11,CCOC(=O)C1CCN(C(=O)c2cccnc2Oc2ccc(Cl)cc2)CC1,inconclusive: -32% [inhibitor]
12,C/C(=N/NC(=O)c1cccs1)c1c(C)[nH]n(-c2nc3ccccc3s2)c1=O,inconclusive: -74.9% [inhibitor]
13,CCOn1c(=O)c(-c2cccc([N+](=O)[O-])c2)[n+]([O-])c2ccccc21,inconclusive: -74.2% [inhibitor]
14,CCNC(=O)c1cc(S(=O)(=O)N2CCSCC2)ccc1OC,inactive: -16.1%
15,COc1cccc(S(=O)(=O)NCc2ccc(C(=O)Nc3cccc(Cl)c3)cc2)c1,inactive: -3.9%
16,O=C1c2ccccc2C(=O)N1COc1ccc(S(=O)(=O)N2CCOCC2)cc1[N+](=O)[O-],inconclusive: -36.1% [inhibitor]
17,Cc1cc(C)c(NC(=O)COC(=O)Cc2cccs2)c(C)c1,inactive: -2.9%
18,Cc1cc(C)cc(N(CC(=O)NC2CCCCCC2)S(=O)(=O)c2c(C)[nH]c(=O)[nH]c2=O)c1,inconclusive: -39.7% [inhibitor]
19,O=C(COc1ccccc1)Nc1nnc(COc2ccccc2)s1,inactive: 2.52%
20,N#CC1(NC(=O)CSc2nc3ccc([N+](=O)[O-])cc3s2)CCCCC1,inactive: 7.5%
21,Cc1cccc(C(=O)n2c(=S)nc3ccccn32)c1,inconclusive: -32.5% [inhibitor]
22,CCn1cnc2cc(NS(=O)(=O)c3ccc(OC)c(OC)c3)ccc21,inconclusive: -32.9% [inhibitor]
23,Cc1cccc(NC(=O)Nc2ccc([N+](=O)[O-])cc2)n1,inconclusive: -42.8% [inhibitor]
24,Nc1nc(Nc2ccccc2)nc2ccccc12,inconclusive: -33.4% [inhibitor]
25,COc1cc(C2CC(=O)Oc3cc(OC)c(OC)c(OC)c32)cc(OC)c1OC (stereo not given),inconclusive: -30.9% [inhibitor]

row,Compound,activity change
1,O=C(O)c1cccnc1,inconclusive: -30.3% [inhibitor]
2,COc1cccc(-c2cc(C(F)(F)F)nc(-n3ccc([N+](=O)[O-])n3)n2)c1,inconclusive: -35.5% [inhibitor]
3,O=C(NNc1ccc([N+](=O)[O-])cc1)Nc1ccccc1,inconclusive: -32.7% [inhibitor]
4,O=C(COC(=O)c1ccccc1[N+](=O)[O-])c1ccc2c(c1)OCO2,inconclusive: -53.7% [inhibitor]
5,Cc1ccccc1Cn1cc(NC(=O)CSc2nc3c(c(C(F)(F)F)n2)CCc2ccccc2-3)cn1,inactive: -12%
6,O=C(NC(=S)NCC1CCCO1)c1ccc([N+](=O)[O-])cc1 (stereo not given),inactive: -18%
7,O=[N+]([O-])c1ccc(CSc2ccc(S(=O)(=O)N3CCCC3)cn2)cc1,inconclusive: -30.5% [inhibitor]
8,O=C(O)c1cc(-c2ccc3c(c2)OCO3)nc2ccccc12,inactive: -24.5%
9,COCCCNC(=O)c1cccc(S(=O)(=O)N2CC3(C)CC2CC(C)(C)C3)c1 (stereo not given),inconclusive: -36% [inhibitor]
10,COc1ccc(CCc2ccnc3ccccc23)cc1,inactive: 1.4%
11,Cc1nnc(NC(=O)CCCCCN2C(=O)C3C4C=CC(C4)C3C2=O)s1 (stereo not given),inconclusive: -30.2% [inhibitor]
12,CC1(OC(=O)C2CCCC2)C(=O)C=C2C=C(c3ccsc3)N(C3CCCCC3)C=C2C1=O (stereo not given),inactive: 5.23%
13,CCOc1cccc(C(=O)Nc2ccc(NC(=O)c3cc4ccccc4o3)c(OC)c2)c1,inactive: 13.5%
14,CSc1nsc(SCC(=O)Nc2ccccc2F)n1,inconclusive: -36.8% [inhibitor]
15,CCN1CCN(C(c2ccccc2)c2nnnn2Cc2ccc(OC)cc2)CC1 (stereo not given),inconclusive: -32.8% [inhibitor]
16,CN(C)C(=S)N=Nc1[nH]c2ccccc2c1O,inconclusive: -31.1% [inhibitor]
17,CC1CCN(S(=O)(=O)c2cn(CC(=O)N3CCN(c4cccc(C(F)(F)F)c4)CC3)cn2)CC1,inactive: -8.76%
18,Cc1ccc(-c2nn(-c3ccccc3)cc2/C=N/NS(=O)(=O)c2ccccc2)cc1,inactive: -13.1%
19,Cc1ccc(N2C(=O)NC(NC(=O)C(C)(C)C)(C(F)(F)F)C2=O)cc1C (stereo not given),inconclusive: -32.1% [inhibitor]
20,O=C(NCCS(=O)(=O)N1CCC2(CC1)OCCO2)c1ccccc1,inconclusive: -31.8% [inhibitor]
21,O=C(CCc1nnc2ccc(NCc3ccccc3Cl)nn12)NCC1CCN(C2CCCC2)C1 (stereo not given),inconclusive: -38% [inhibitor]
22,CCOc1cc(CNc2ccc(O)cc2)cc(Br)c1OCc1ccccc1F,inactive: 13%
23,Cc1ccc(C(=O)CNc2ccc(Cl)cc2)cc1,inactive: 24.5%
24,O=C(NC1CCCCC1)C1CCCN1S(=O)(=O)c1ccc(F)cc1 (stereo not given),inconclusive: -32.8% [inhibitor]
25,CCOc1ccc(CCNc2nc3ccc(C)cc3n3cnnc23)cc1OCC,inconclusive: -37.1% [inhibitor]
